# From PubChem BioAssay (NCI)
#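 Cultured in 96-well plates, cells were exposed to test compound for 48 hours across five concentrations. GI50 = concentration required for 50% inhibition of growth.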 Not every entry of the source has a single result; some have several. The list is limited to them. The source may hold further records. For part of these data: Records of one sample usually come from different ranges of test concentrations, not given here; a value can be the end of its range. For part of these data: Values that stand side by side are repeats in other runs, samples, wells, individuals or studies. A tag in brackets gives the origin of a value. The letters are not those of the source and start again with each entry.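 TGI: total growth inhibition.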
# Key:
# Assay in all cases: DTP human tumour cell line panel, 48 h
# EKVX NSCLC = tested on: EKVX NSCLC
# MCF7 breast = tested on: MCF7 breast
# HOP-92 NSCLC = tested on: HOP-92 NSCLC
# UO-31 renal = tested on: UO-31 renal
# HOP-62 NSCLC = tested on: HOP-62 NSCLC
# OVCAR-8 ovarian = tested on: OVCAR-8 ovarian
# SF-268 CNS = tested on: SF-268 CNS
# HCT-15 colon = tested on: HCT-15 colon
# SK-OV-3 ovarian = tested on: SK-OV-3 ovarian
# HL-60(TB) leukemia = tested on: HL-60(TB) leukemia
# M14 melanoma = tested on: M14 melanoma
# HCT-116 colon = tested on: HCT-116 colon
# SF-295 CNS = tested on: SF-295 CNS
# HT29 colon = tested on: HT29 colon
# LOX IMVI melanoma = tested on: LOX IMVI melanoma
# SK-MEL-28 melanoma = tested on: SK-MEL-28 melanoma
# OVCAR-3 ovarian = tested on: OVCAR-3 ovarian
# UACC-62 melanoma = tested on: UACC-62 melanoma
# HCC-2998 colon = tested on: HCC-2998 colon
# SN12C renal = tested on: SN12C renal
# SR leukemia = tested on: SR leukemia
# SF-539 CNS = tested on: SF-539 CNS
# CCRF-CEM leukemia = tested on: CCRF-CEM leukemia
# CAKI-1 renal = tested on: CAKI-1 renal
# UACC-257 melanoma = tested on: UACC-257 melanoma
# DLD-1 colon = tested on: DLD-1 colon
smiles,measurement,setting,value
Nc1ncnc2c(C3OC(CO)C(O)C3O)[nH]nc12 (stereo not drawn),TGI,EKVX NSCLC,17.9 µM and 695 nM
same,TGI,MCF7 breast,30.1 µM and 611 nM
same,TGI,HOP-92 NSCLC,3.83 µM and 158 nM
same,TGI,UO-31 renal,11.8 µM and 701 nM
same,TGI,HOP-62 NSCLC,17.7 µM and 343 nM
COc1cc2c(c(OC)c1OC)-c1ccc(SC)c(=O)cc1[C@@H](NCc1cccc(C#N)c1)CC2,TGI,OVCAR-8 ovarian,54 nM and > 75 µM
same,TGI,SF-268 CNS,98.9 nM and > 75 µM
same,TGI,HCT-15 colon,75.2 nM and > 75 µM
same,TGI,SK-OV-3 ovarian,60.8 nM and 2.13 µM
same,TGI,HL-60(TB) leukemia,646 nM and < 7.5 nM
same,TGI,M14 melanoma,145 nM and < 7.5 nM
same,TGI,HCT-116 colon,49.1 nM and > 75 µM
same,TGI,SF-295 CNS,487 nM and > 75 µM
CC1(C)CC(=O)c2c(ccc(C(=O)C[C@H](N)CO)c2N)O1,GI50,HT29 colon,1.92 µM and 141 nM
same,GI50,LOX IMVI melanoma,2.85 µM and 64.8 nM
same,TGI,LOX IMVI melanoma,17.5 µM and 135 nM
same,GI50,SK-MEL-28 melanoma,4.41 µM and 238 nM
same,GI50,OVCAR-3 ovarian,2.2 µM and 201 nM
same,GI50,UACC-62 melanoma,2.69 µM and 233 nM
same,GI50,HCC-2998 colon,3.59 µM and 214 nM
same,GI50,MCF7 breast,2.41 µM and 169 nM
same,GI50,M14 melanoma,5.56 µM and 303 nM
same,GI50,SN12C renal,5.7 µM and 416 nM
same,TGI,SR leukemia,17.5 µM and 269 nM
same,GI50,SF-539 CNS,3.57 µM and 336 nM
same,GI50,CCRF-CEM leukemia,5.38 µM and 186 nM
C/C(=N\NC(=O)c1ccccc1O)c1cccc(/C(C)=N/NC(=O)c2ccccc2O)n1,GI50,CAKI-1 renal,"27.6 µM [sample A, mean of 3 tests] and 333 nM [sample B, 1 test]"
same,TGI,HL-60(TB) leukemia,"9.46 µM [sample A, mean of 5 tests] and > 100 µM [sample B, mean of 2 tests]"
same,GI50,UO-31 renal,"4.42 µM [sample A, mean of 5 tests] and 420 nM [sample B, mean of 2 tests]"
Nc1ncnc2c(C3OC(CO)C(O)C3O)scc12 (stereo not drawn),TGI,UACC-257 melanoma,795 nM and 12.9 µM
same,TGI,OVCAR-8 ovarian,63.5 nM and 731 nM
same,TGI,UACC-62 melanoma,1.6 µM and 50.2 nM
same,TGI,DLD-1 colon,54.4 nM and 1.09 µM
